Out of some 91,000 compounds screened, about 290 (0.32%) were called active. This list was built around the results that the source calls inconclusive (neither active nor inactive); the mix of calls is not that of the screen. Calls follow the shape of the dose curve; as a rule, active = well fitted inhibition curve with a large enough effect; inconclusive = small, poorly fitted or top-dose-only effect; inactive = no such curve, though single readings can be large or run the other way. Where the call is inconclusive, the potency comes from a doubtful curve fit.
target: Single-stranded DNA cytosine deaminase (Homo sapiens) (UniProt Q9GZX7); assay: Primary qHTS assay for inhibitors of Activation Induced Cytidine Deaminase (AID): AID signal; conditions: AID deamination FRET fluorescence, UDG-coupled, 4 h; activity change, negative = inhibition: at 115 µM (top of the series); also: nearly all actives have a fitted effect of over 25% in size
% is scaled to controls: 0 for no effect and ±100 for the full control effect; potency is read from the fitted curve at half-maximal effect; tags tell the direction and shape of the fitted curve.

Sequence of UniProt Q9GZX7 (Q9GZX7 whole entry, looked up): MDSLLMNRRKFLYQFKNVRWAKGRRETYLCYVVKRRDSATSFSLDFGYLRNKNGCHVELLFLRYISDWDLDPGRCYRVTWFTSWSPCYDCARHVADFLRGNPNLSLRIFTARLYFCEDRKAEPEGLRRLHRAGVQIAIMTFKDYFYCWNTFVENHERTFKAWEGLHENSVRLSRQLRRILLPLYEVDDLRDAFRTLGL

SMILES | Potency | activity change, negative = inhibition
COc1ccc(-c2noc(-c3cccnc3N3CCN(c4ccc(OC)cc4)CC3)n2)cc1 | inconclusive: 31.6 µM [inhibitor, partial curve, poor fit] | 
CCOc1ccc(-n2cc(-c3ccccc3)c3c(N4CCN(c5ccccc5OC)CC4)ncnc32)cc1 | inconclusive: 20 µM [inhibitor, partial curve, poor fit] | 
COc1ccc(-c2nc(CSCC(=O)NCCc3ccccc3)c(C)o2)cc1 | inconclusive: 14.1 µM [inhibitor, full curve, poor fit] | 
CCn1c(CN2CCC(C)CC2)nc2cc(NC(=O)COc3ccc(Cl)c(C)c3)ccc21 | inconclusive: 28.2 µM [inhibitor, single point] | 
Clc1ccc(CN2CCC(CNc3ncnc4onc(-c5ccc(Cl)cc5)c34)CC2)cc1 | inconclusive: 10 µM [inhibitor, full curve, poor fit] | 
CCOc1ccc2oc(C(=O)N3CCN(CC(=O)Nc4ccccc4CC)CC3)c(C)c2c1 | inconclusive: 35.5 µM [inhibitor, partial curve, poor fit] | 
Cn1c(CN2CCOCC2)nnc1SCc1ccc(Br)cc1 |  | inactive: -4.76%
Cc1ccccc1/C=C(\C#N)c1nc2ccccc2[nH]1 |  | inactive: -12%
Cc1ccc2c(c1)c(/C=C/c1cc[n+](C)cc1)c(C)n2C | inconclusive: 39.8 µM [inhibitor, full curve, poor fit] | 
CCS(=O)(=O)N1CCc2cc(C(=O)CSc3cccc(OC)c3)ccc21 |  | inactive: -18.3%
CCn1cc(S(=O)(=O)c2ccccc2)c(=O)c2cc(F)c(N3CCCC3)cc21 | inconclusive: 50.1 µM [inhibitor, partial curve, poor fit] | 
CCOc1ccc(-c2cc(C(=O)NCc3ccccc3Cl)c3ccccc3n2)cc1 | inconclusive: 56.2 µM [inhibitor, partial curve, poor fit] | 
Cc1ccc(OCC(=O)Nc2cccc(OCc3cc(=O)n4cccc(C)c4n3)c2)cc1C | inconclusive: 17.8 µM [inhibitor, full curve, poor fit] | 
CCn1cc2c(n1)-c1c(oc(C(=O)Nc3cccc(C)c3C)c1C)CC2 | inconclusive: 70.8 µM [inhibitor, partial curve, poor fit] | 
CCC1(C)Cc2c(sc3nc(SC)nc(N4CCCCC4)c23)CO1 (stereo not given) |  | inactive: -4.12%
O=C(c1ccc2c(c1)N(Cc1ccc(F)cc1)C(=O)c1ccccc1S2(=O)=O)N1CCN(Cc2ccccc2)CC1 | inconclusive: 14.1 µM [inhibitor, full curve, poor fit] | 
CC(=O)c1cccc(NC(=O)C2CCCN(C(=O)c3cnn(-c4ccccc4)c3-n3cccc3)C2)c1 (stereo not given) | inconclusive: 70.8 µM [inhibitor, single point] | 
CCOc1ccc(C(=O)Nc2cccc(NC(=O)c3ccc(C(C)(C)C)cc3)c2)cc1Br | inconclusive: 17.8 µM [inhibitor, partial curve, poor fit] | 
C=CCc1ccccc1OCc1nc2ccccc2n1CC | inconclusive: 15.8 µM [inhibitor, full curve, poor fit] | 
Cc1ccc(NC(=O)CCc2c[nH]c3ccccc23)cc1 |  | inactive: -8.21%
Cc1cccc(NC(=O)CSc2nc3ccccc3nc2N2CCCCC2)c1C | inconclusive: 28.2 µM [inhibitor, partial curve, poor fit] | 
COc1cccc(Cn2c(=O)n(CCc3ccccc3)c(=O)c3c2c2cc(OC)ccc2n3C)c1 | inconclusive: 79.4 µM [inhibitor, partial curve, poor fit] | 

SMILES | Potency | activity change, negative = inhibition
CCOc1ccc(N(CC(=O)Nc2ccccc2CC)S(=O)(=O)c2c(C)noc2C)cc1 | inconclusive: 79.4 µM [inhibitor, partial curve, poor fit] | 
CCOC(=O)c1ccc(NC(=O)CCn2nc(C)c(S(=O)(=O)N3CCCCC3)c2C)cc1 |  | inactive: -3.04%
CC(=O)N(Cc1cccnc1)c1nc2c(C)cc(C)cc2s1 | inconclusive: 50.1 µM [inhibitor, partial curve] | 
N#CC1(C#N)CC2(O)NC(=O)C1(C#N)C(c1ccccc1)C2Br (stereo not given) |  | inactive: 1.86%
COc1ccc(Cn2cc(C(=O)c3ccc(Cl)cc3)c(=O)c3cc4c(cc32)OCO4)cc1 | inconclusive: 17.8 µM [inhibitor, full curve, poor fit] | 
C/C(=N\Nc1c(Cl)cc(Cl)cc1Cl)c1ccc(Cl)cc1Cl |  | inactive: 3.19%
COc1ccc(C(=O)NCCn2cc(SCC(=O)Nc3ccccc3)c3ccccc32)cc1OC | inconclusive: 79.4 µM [inhibitor, single point] | 
CCCCn1cc(S(=O)(=O)c2ccc(CC)cc2)c(=O)c2cc(F)c(N3CCCC(C)C3)cc21 (stereo not given) | inconclusive: 10 µM [inhibitor, partial curve, poor fit] | 
CCc1ccccc1NC(=O)CCC(=O)c1ccc2c(c1)CCC2 |  | inactive: -0.336%
CCOc1ccccc1C1CC(=O)NC(C)=C1C(=O)OC1CCCCCC1 (stereo not given) | inconclusive: 17.8 µM [inhibitor, full curve, poor fit] | 
CCOC(=O)c1c(Nc2cccc(O)c2)nnc(-c2ccccc2)c1-c1ccccc1 | inconclusive: 25.1 µM [inhibitor, full curve, poor fit] | 
Cc1ccsc1-c1nc(-c2ccc3c(c2)CCO3)cs1 |  | inactive: -13.4%
CCC1CN(S(=O)(=O)c2cc(-c3cc(C)no3)ccc2OC)c2cc(C)ccc2O1 (stereo not given) | inconclusive: 56.2 µM [inhibitor, partial curve, poor fit] | 
COc1ccc(Nc2ncnc3c2cnn3-c2ccccc2Cl)cc1 | inconclusive: 44.7 µM [inhibitor, partial curve, poor fit] | 
Cc1cc(NC(=O)c2ccc3c(c2)N(Cc2cccc(Cl)c2)C(=O)c2ccccc2S3=O)ccc1Br (stereo not given) | inconclusive: 7.94 µM [inhibitor, full curve, poor fit] | 
CCn1c(=O)c2cc(C(=O)N3CCN(c4cccc(Cl)c4)CC3)sc2c2ccccc21 | inconclusive: 20 µM [inhibitor, partial curve, poor fit] | 
O=C(OCc1ccc(-c2ccccc2)cc1)c1ccc(CO)cc1 |  | inactive: -7.32%
CCOc1cc(C=O)cc(Br)c1OC(=O)c1ccc(OC)cc1 | inconclusive: 56.2 µM [inhibitor, partial curve, poor fit] | 
CCOC(=O)C1CCN(S(=O)(=O)c2cc(-c3onc(C)c3C)ccc2OC)CC1 | inconclusive: 70.8 µM [inhibitor, single point] | 
CCOc1ccc(NC(=O)CSc2nccn2-c2cccc(C)c2C)cc1 | inconclusive: 35.5 µM [inhibitor, partial curve, poor fit] | 
CC(C)c1ccc2oc(-c3cc(NC(=O)c4cccs4)ccc3Cl)nc2c1 | inconclusive: 56.2 µM [inhibitor, partial curve, poor fit] | 
CC(=O)c1ccc(C(C)(C)C)cc1 |  | inactive: 2.65%

SMILES | Potency | activity change, negative = inhibition
O=C(CCC(=O)NC12CC3CC(CC(C3)C1)C2)Nc1cccnc1 |  | inactive: -1.88%
c1ccc(Cc2nnc(SCc3nc(-c4cccs4)no3)n2-c2ccccc2)cc1 | inconclusive: 70.8 µM [inhibitor, single point] | 
Cc1ccc(Nc2nnc(-c3ccc(C)c(S(=O)(=O)N4CCN(C)CC4)c3)c3ccccc23)c(C)c1 | inconclusive: 25.1 µM [inhibitor, partial curve, poor fit] | 
CSc1cccc(NC(=S)NCCSc2ccc(Cl)cc2)c1 |  | inactive: -10.6%
Cc1cc(C)c(Cn2c(CCNC(=O)c3ccco3)nc3ccccc32)c(C)c1 | inconclusive: 89.1 µM [inhibitor, single point] | 
CCCOC(=O)c1cc(NC(=O)c2cccc(C)c2OC)ccc1N1CCOCC1 |  | inactive: 1.74%
CCc1nnc(SCC(=O)N(C)c2ccccc2)c2cc3sccc3n12 | inconclusive: 100 µM [inhibitor, partial curve, poor fit] | 
Cc1ncsc1C(=O)N1CCCC1Cc1c(F)cccc1Cl (stereo not given) |  | inactive: -2.56%
Cc1cccc(C(=O)NCC(c2ccc3c(c2)OCO3)N2CCN(c3ccccc3F)CC2)c1 (stereo not given) | inconclusive: 22.4 µM [inhibitor, full curve, poor fit] | 
Nc1ccc(-c2nc3ccc(-c4nc5ccc(N)cc5[nH]4)cc3[nH]2)cc1 | inconclusive: 22.4 µM [inhibitor, full curve] | 
O/N=C(\c1ccc(O)cc1O)c1ccccc1F |  | inactive: -0.534%
Nc1nccnc1C(=O)NCC(=O)NC1CC1 |  | inactive: 6.64%
O=C(CCS(=O)(=O)c1nc(-c2ccc3c(c2)OCO3)cc(C(F)(F)F)n1)Nc1ccccc1C(F)(F)F | inconclusive: 39.8 µM [inhibitor, single point] | 
Cc1ccc2nc(Cl)c3cc(C(=O)N4CCCC(C)C4)sc3c2c1 (stereo not given) | active: 39.8 µM | 
Cc1oc(-c2ccccc2)nc1Cn1c(=O)cc(-c2ccccc2)c2c(C)nn(C)c21 | inconclusive: 39.8 µM [inhibitor, partial curve] | 
Cn1c(=O)c2c(-c3ccccc3)n3c(c2n(C)c1=O)C(c1cccc([N+](=O)[O-])c1)Nc1ccccc1-3 (stereo not given) | inconclusive: 39.8 µM [inhibitor, partial curve, poor fit] | 
CCCCCCCCSCC(N)=O |  | inactive: -5.59%
CCCOC(=O)c1cccc(Nc2nc(C(=O)OCC)nc3ccccc23)c1 |  | inactive: -23.1%
CCN(C(=O)CCl)C1CCCCC1 |  | inactive: -0.506%
CC(=O)N(CCC1(CCC(C)C)CCOC(C)(C)C1)Cc1ccco1 (stereo not given) |  | inactive: 1.07%
CCOc1ccc(CCNC(=O)Cn2ccc3cc(S(=O)(=O)N4CCCCCC4)ccc32)cc1 | inconclusive: 3.16 µM [inhibitor, partial curve, poor fit] | 
